The full ranking holds about 33,000 sequences; the median of “E-score (-0.5 to 0.5)” is about -0.013, and the highest 2% start at about 0.3. Some of the results follow.
Target: T1, Msn1 (UniProt P22148)
T1 sequence: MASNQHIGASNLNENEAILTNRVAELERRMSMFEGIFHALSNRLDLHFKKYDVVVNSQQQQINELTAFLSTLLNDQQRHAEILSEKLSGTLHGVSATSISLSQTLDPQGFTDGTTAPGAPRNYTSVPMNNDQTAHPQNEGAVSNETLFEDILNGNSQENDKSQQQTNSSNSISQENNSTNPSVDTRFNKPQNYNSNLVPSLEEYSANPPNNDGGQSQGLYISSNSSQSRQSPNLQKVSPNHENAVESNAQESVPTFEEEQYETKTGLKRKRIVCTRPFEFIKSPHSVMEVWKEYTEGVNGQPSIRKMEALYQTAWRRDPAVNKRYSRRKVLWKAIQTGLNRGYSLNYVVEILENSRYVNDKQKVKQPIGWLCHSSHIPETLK
Experiment: PBM E-score (8-mer binding enrichment) (E-score (-0.5 to 0.5)); higher = stronger / more preferred TF binding; most listed sequences are background and not binding sites
Settings: protein concentration: 200 nM; construct: GST-full length
In short: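 Each ungapped eight-base word and its reverse complement, pooled, received an E-score from the Universal PBM Analysis Suite. Underlying scans, normalised with masliner, recorded fluorescent anti-GST bound to GST-tagged yeast transcription factors. These were applied at about 100-200 nM to universal all-10-mer Agilent arrays double-stranded by primer extension.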

Sequence	PBM E-score
AAAAATTC	0.182
AAAAGCAC	-0.15
ACCATAGC	-0.123
TAACAACA	0.0839
ATTAGCCG	-0.026
CTTGTTGC	0.0476
CACCTCCA	-0.00802
CACGTGCG	0.00866
CCCCATAC	-0.182
CCTTGTAC	0.183
AGTTTTGG	0.0755
AGCTCAGG	0.126
AAATCCGA	0.202
CGTGGTAG	-0.0553
GTGACCTA	0.0752
CGCTGATC	-0.029
AGCAATTG	0.00301
ACGCAGCT	0.055
GCGGTCTA	-0.0194
CCAAGGTC	-0.152
CATCCAGG	-0.157
GGAACCAC	0.0433
AGCGTATA	-0.00084
AAGCCGGC	-0.0588
ATATACTC	-0.0332

Sequence	PBM E-score
CACTATAA	-0.0316
CATGCGTA	-0.0462
AGGGCATC	-0.258
AATACTAA	0.124
CCAAGAAA	0.0697
TGCACGCA	-0.195
AACGTTCA	-0.108
ATCAAAAT	0.131
GGTAGGAA	-0.137
TAACCGAA	0.0463
ACGGACTA	0.114
GGTGAATA	0.107
AAACAGAC	0.124
CCGTCGCC	-0.0478
ATCTGATC	-0.064
CGCTTAAG	-0.116
GCAAGTCC	0.127
AACATGCC	-0.119
ATTACCAA	-0.0223
CCGCTACA	-0.161
GGTACCCA	-0.189
AAGGGCCG	-0.153
CTCGGGCA	0.0616
AGACCATA	0.0727
CTTAGTGA	-0.175

Sequence	PBM E-score
ATGACTCC	-0.157
CGAGCCGA	0.168
AGAAAGCC	-0.0829
ACCCGCGG	0.0892
CTCTCCTC	-0.0768
CGTTCTAC	-0.157
AGCCTCGA	-0.0675
GCTTACAA	-0.0124
AAAGGGAT	-8e-05
AGTCACCG	-0.173
CAAGAAAA	0.213
TACCCGCA	-0.0605
CAATGGAG	-0.178
TAATGTAA	0.114
AGCAGCCA	-0.0979
AGAAACCC	-0.056
CCCTGAAG	-0.267
GACTTGAA	0.0362
CCCTGGGA	-0.175
CAACTACA	-0.0244
ATGTACCA	0.316
GCCAGCCA	-0.149
CGGTGGAC	0.0943
GATGTGAC	-0.104
GATCGATC	-0.321

Sequence	PBM E-score
CACTCGAG	-0.029
CCTCCTCC	-0.227
GACATGGA	0.342
CCTGGAGA	-0.0962
CCGTAAAG	0.026
AAATCATG	0.0666
CTGGTGGA	-0.184
GGCGCCCA	-0.0597
ATTCAGCA	0.017
CTTTTCAA	0.151
CAAAGAGC	-0.204
GGAGCCCC	-0.314
GAAAATAC	-0.00969
CCTTGTGC	-0.128
CGCCGAGC	0.0968
TGCCCCAA	-0.101
CGTAGACA	0.212
GAGGTTAC	0.0109
AACGAATG	0.119
CAGTATAC	-0.0377
CGGGGTTC	-0.187
CAAATACG	0.106
CTAAATGC	0.035
GGGGGAAA	-0.249
AAAGGGAA	-0.0591

Sequence	PBM E-score
ATTAGAAG	0.0235
CAACAGAA	-0.101
ATCCGAGG	0.0468
AGGTTGCA	-0.0307
CAGGCCAG	0.0971
CCAGGAGG	-0.158
CAGACAAG	0.28
GATGGTTA	-0.0513
AAATCGAA	-0.158
CCAAAATA	0.117
ATGCGAAG	-0.0114
AAAGGTAC	0.0934
AATCGATG	0.144
CATGTCAC	0.291
ATACTGAG	0.0535
TCCCCCGA	-0.18
ATGAGCAA	0.0578
AAGACGAT	0.0374
GCGTACTA	0.0747
AGCGCGCC	-0.1
GACACCCC	-0.138
AGGACAGC	0.078
CACTAACC	-0.077
ACAAGTGA	0.195
CGAAGTGA	-0.0371

Sequence	PBM E-score
ACGTTCGG	-0.0537
GCACGAGC	-0.242
GCATAGAC	0.114
AGAAACAT	0.157
AGGGACCA	-0.188
AGTCTACC	-0.177
ACTGTTAG	-0.076
GCTCCGCC	-0.197
AGAAACTC	0.0918
CCGGTCAC	-0.068
CTCAACTC	0.0683
ATACAGGA	0.19
GCTACTCA	-0.15
AACGATCT	-0.0388
ACCATCGG	-0.0852
AGCGCACT	-0.118
ACCGCGTA	-0.0135
CCAACGGA	-0.08
ACAACCCC	-0.0844
GATGGTAC	0.111
ATCAGATC	-0.121
CAATTGTA	0.184
AACGAGTA	0.0188
CGTGGATA	0.068
AGCACACT	-0.0827

Sequence	PBM E-score
ATCCAGTC	0.0952
AAGCGGTC	-0.00589
ACGTTCAG	-0.0415
GCGGTACA	0.0441
AGACTACC	0.0803
ATCAAACC	0.0967
GCATAGCC	-0.214
CTTCGCTC	-0.125
GGTTAATA	0.143
CAGCTGGG	-0.182
CTGCCGTC	-0.268
GAAATCCA	-0.0457
AAGTGATT	0.156
ATTCCTCC	-0.124
CTAACGAA	0.0284
CTGTTCGA	-0.107
GGGTGAAC	-0.0473
ATAGACCG	-0.0549
GACTTTTA	0.29
CTGTTGCC	0.0672
GTGTTTAA	0.133
ACGATTAG	0.0217
GCAAAAGA	0.034
ATAGCCCG	-0.17
ATACGCGG	0.0145

Sequence	PBM E-score
AGGGACTG	-0.191
CCCCTCCA	-0.222
ACGATGGG	-0.133
CTATAACA	0.0404
AGATTCCC	-0.107
AACTGCTC	-0.0985
CCTGGGGC	-0.376
ACATGAAT	0.0842
CGCTCTCC	-0.23
CATCTGCC	-0.0408
CATTTCAC	0.148
TAATCAGA	-0.0476
GCCCTCAC	-0.32
CTCCGCAC	-0.0661
CCATTATC	0.0533
CCAGTCCG	-0.0618
GTTGGCTA	-0.0624
ACGCGCCC	-0.102
AACAGATC	-0.0552
GGGTTACC	-0.117
CGTGCAAC	-0.075
GTCTTAGA	0.238
AATACAGG	0.0823
GCTGCTAA	-0.228
ATAGCCTA	-0.0229

Sequence	PBM E-score
ATAACGGA	0.188
AGGCTTAT	-0.0752
GGCCACCA	-0.0221
CGTCCATA	0.236
GCGGTATA	-0.253
CGGAATTA	0.135
AGAGCAAG	-0.0268
ACACGAGT	0.185
ACAATCGT	0.0286
GGTACTAA	0.0687
GTGGCTAA	0.0945
CCAAGCGG	-0.16
ACGATCCC	-0.232
CCAACAGG	-0.202
CTATATAC	0.258
CCCGTTCA	-0.136
ACCTGATA	0.105
TTGACAAA	0.266
AAAGGGGG	-0.283
